The source gives no read counts; variants with many changes may rest on few reads.

B1: OR4K15 (parent)
chain: GUUAACGGUCAUAGGCCAUGGAAACUAGGAGCACCAUUUCGCUGCCAGUGAAGAAAUGAACAAAGAAAAUCUGGGCCAGGCAGGCAUCAAAAGAAAUAGUCUUGCGCUCAACCAGAAAGUCUGUAAUCAUUUUAAGGGUA

In the series the parent is B1. Description: self-cleavage, relative activity (ratio to wild type); higher = more cleavage; in vitro, sequencing; the parent is a self-cleaving ribozyme.
In the case of GUUAACGGUCAUAGGCCAUGGAAACUAGGAGCACCAUUUCGCCGCCAGUGAAGGAAUGAACAAAGAAAAUCUGGGCCAGGCAGGCAUCAAAGGAAAUAGUCUUGCGCUCAACCAGAAAGUCUGUAAUCAUUUUAAGGGUA, the self-cleavage came to 1.85.
The same measure for GUUAACGGUCAUAGGCCAUGGAAACUAGGAGCACCAUUUCGCAGCCAGUGAAGAAACGAACAAAGAAGGUCUGGGCCAGGCAGGCAUCAAAAGAAAUAGUCUUGCGCUCAACCAGAAAGUCUGUAAUCAUUUUAAGGGUA: 0.55.
As for GUUAACGGUCAUAGGCCAUGGAAACUAGGAGCACCAUUUCGCCGCCAGUGAAGGAAAGAACAAAGAAAAUCUGGGCCAGGCAGGCAUCAAAAGAAAUAGUCUUGCGCUCAACCAGAAAGUCUGUAAUCAUCUUAAGGGUA, the self-cleavage worked out at 0.93.
The figure for GUUAACGGUCAUAGGCCAUGGAAACUAGGAGCACCAUUUCGCCGCCAGUGGAGAAAUGAACAAAGAAAAUCUGGGCCAGGCAGGCAUCAAAAGAAAUAGUCUUGCGCUCAACCAGAGAGUCUGUAAUCAUUUUAAGGGUU is 2.02; for GUUAACGGUCAUAGGCCAUGGAAACUAGGAGCACCAUUUCGCCGCCAGUGAAGAAAUGAACGAAGAAAUUCUGGGCCAGGCAGGCAUCAAAAGAAAUAGCCUUGCGCUCAACCAGAAAGUCUGUAAUCAUUUUAAGGGUA it is 2.02; for GUUAACGGUCAUAGGCCAUGGAAACUAGGAGCACCAUUUCGCCGCCAGUGGAGAAAUGAACAAAGAAAAUCUGGGCCUGGCAGGCAUCAAAAGAAAUAGUCUUGCGCUCAACCAGAAAGUCCGUAAUCAUUUUAAGGGUA it is 0.32.
Take GUUAACGGUCAUAGGCCAUGGAAACUAGGAGCACCAUUUCGCCGCCAGUGGAGAAAUGAACAAAGAAAAUCUGGGCCAGGCAGGCAUCAAAAGAAAUAGUCUUGCGCUCAACCAGAAAGUCUGUAAUCAUUUUAAGGGCA: the self-cleavage stood at 1.06.
The figure for GUUAACGGUCAUAGGCCAUGGAAACUAGGAGCACCAUUUCGCCGCCAGUGGAGAAAUGAACAAAGAAAAUCUGGGCCAGGCAGGCAUCAAAAGGAAUAGCCUCGCGCUCAACCAGAAAGUCUGUAAUCACUUUAAGGGUA is 1.23.
As to GUUAACGGUCAUAGGCCAUGGAAACUAGGAGCACCAUUUCGCCGCCAGUGAAGGAAUGAACAAAGAAAAUCUGGGCCAGGCAGGCAUCAAAAGGAAUAGUCUUGCGCUCAACCAGAAAGUCUGUAAUCAUUAUAAGGGUA, the self-cleavage worked out at 1.51.
Regarding GUUAACGGUCAUAGGCCAUGGAAACUAGGAGCACCAUUUCGCCGCCGGUGAAGAAAUGAACAAAGAAAAUCUGGGCCGGGCAGGCAUCAAAAGAAAUAGUCUUGCGCUCAACCAGAAGGUCUGUAAUCAUUUUAAGGGUA, the self-cleavage turned out to be 0.03.
In the case of GUUAACGGUCAUAGGCCAUGGAAACUAGGAGCACCAUUUCGCCGCCAGUGAAGAGAUGAACAAAGAAAAUCUGGGCCAGGCAGGCAUCAAAAGAAAUAGUCUUGCGCUCAACCAGAAAGUCUGUAACCAUUUUAAGGGUA, the self-cleavage was determined as 0.76.
The figure for GUUAACGGUCAUAGGCCAUGGAAACUAGGAGCACCAUUUCGCCGCCAGUGUAGAAAUGAACAAGGAAAGUCUGGGCCAGGCAGGCAUCAAAAGAAAUAGUCUUGCGCUCAACCGGAAAGUCUGUAAUCAUUUUAAGGGUA is 0.19.
The figure for GUUAACGGUCAUAGGCCAUGGAAACUAGGAGCACCAUUUCGCCGCCAGUGGAGAAGUGAACAAGGAAAAUCUGGGCCAGGCAGGCUUCAAAAGAAAUACUCUUGCGCUCAACCAGAAAGUCUGUAAUCAUUUUAAGGGCA is 0.05; for GUUAACGGUCAUAGGCCAUGGAAACUAGGAGCACCAUUUCGCCGCCAGUGAAGAAAUGAGCAAAGAAAAUCUGGGCCAGGCAGGCAUCAAAAGAAAUAGUCUUGCGCUCAACCAGAAAGUCUGUAAUCACUUUGAGGGUA it is 0.54.
The figure for GUUAACGGUCAUAGGCCAUGGAAACUAGGAGCACCAUUUCGCCGCCAGUGAAGAGAUGAACAAAGAAAAUCUGGGCCAGGCCGGCAUCAAAAGAGAUAGUCUUGCGCUCAACCAGAAAGUCUGUAAUCGUUUUAAGGGUA is 0.2; for GUUAACGGUCAUAGGCCAUGGAAACUAGGAGCACCAUUUCGCCGCCAGUGUAGAAAUGAACAAAGAAAGUCUGGGCCAGGCAGGCAUCAAAAGAAAUAGUCUUGCGCUCAACCAGAAAGUCUGUAAUCAUUUUAAGGGUA it is 0.82; for GUUAACGGUCAUAGGCCAUGGAAACUAGGAGCACCAUUUCGCCGCCGGUGAAGAAAUGAACAAAGAAAAUCUGGGCCAGGCAGGCAUCAAAAGAAUUAGUCUUGCGCUCAACCAGAAAGUCUGUAAUCAUUUUAAGGGUA it is 1.6.
On to GUUAACGGUCAUAGGCCAUGGAAACUAGGAGCACCAUUUCGCCGCCAGUGAAGAAAUGAACGAAGAAAGUCUGGGCCAGGCAGGCAUCAAAAGAAAUAGUCCUGCGCUCAACCAGAAAGUCUGUAAUCAUUUUAAGGGUA, for which the self-cleavage is 1.36.
For GUUAACGGUCAUAGGCCAUGGAAACUAGGAGCACCAUUUCGCCGCCAGUGAAGAAAUGAGCAAAGAAAAUCUGGGCCAGGCAGGCAUCAAAAGAAAUAGUCUUGCGCUCAACCAGAAAGUCCGUAAUCAUUUUAAGGGUA, the self-cleavage came out at 0.47.
The same measure for GUUAACGGUCAUAGGCCAUGGAAACUAGGAGCACCAUUUCGCCGCCAGUGAGGAAAUGAACAAAGAAAAUCUGGGCCAGGCAGGCAUCAAAAGAGAUAGUCUUGCGCUCAACCAGAAAGUCUGUAAUCAUUCUAAGGGUA: 1.42.
